Measured values taken from the supplement of paper PMC11417369.
± gives the standard deviation of the averaged measurements. The list shows a part of the results.

System: PfAP2-G AP2 domain (GST-tagged)
Assay: gcPBM binding intensity (ln(normalized median fluorescence intensity)); higher = stronger DNA binding
How it was run: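 An Agilent 4 × 180k array carrying primer-extended double-stranded 36-bp intergenic genomic probes and negative controls received GST-tagged P. falciparum DNA-binding domains expressed in E. coli, about 25 μg on average, for 1 h. The binding buffer contained 1× PBS, 1% milk, 0.2 mg/ml BSA, 0.5% salmon testes DNA and 0.03% Triton X-100. Binding intensity is the top Masliner-normalised natural-log median intensity across replicate spots of either probe orientation, read after Alexa488 anti-GST antibody staining and a 488 nm scan.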

Sequence | gcPBM binding intensity (ln)
ATCTTTATTTTTAGCGCACACATAAAATAATAATAA [CACACA_site3458] | 10.6 ± 0.4
CAAAGCATTTTATCTACACACATATATAAATAAATA [CACACA_site7500] | 9.865 ± 0.078
AAATAATTTATATGTAGTACATGTTGTAGATAATTT [XGTACX_site1031] | 11.6 ± 1.1
TATATATATATAATATGTACATATATATATTCTTAA [XGTACX_site6154] | 11 ± 0.55
ATAATTCATGTTTAGTGTACAAAAAATTAAAGCAAC [XGTACX_site8891] | 11.3 ± 0.68
TGATTATATAAAAAAAAGAAAAAAAAAAAAAAAAAA [CACACA_negctrl_site819] | 9.5 ± 0.42
ATGCATCATTTATTTGCACACCTATTATATACTTTT [CACACA_site2097] | 9.89 ± 0.19
ATAATTTTTATTTGTACACACATACAGATATATTAT [CACACA_site4701] | 11.3 ± 0.77
GATATGTACTAATACACACACATATATATATATATA [CACACA_site1022] | 11.2 ± 0.8
TTCTAAAAAGGGTGTACACAAACGAATGGAAAATAA [CACACA_site5483] | 11.6 ± 0.94
GATATAGATATTAATTGTACATATTATTTATTGTTA [XGTACX_site846] | 11 ± 0.61
TTGTAGGAATTTATTTTGACTGATAATTAATACGTT [GTGCAC_negctrl_site46] | 9.745 ± 0.021
ATTAAACATACATATACACACACACCCACCCACCCA [CACACA_site8057] | 10.9 ± 0.55
TAGTGTAAAAAATACGCATGTGTACAAATATAATAA [TGCATGCA_site498] | 11.3 ± 0.49
CACACTAAAAGACACACACACACACGCATATAAATA [CACACA_site7874] | 10.3 ± 0.4
AAATATATATATATATGTACACACACACATATAAAT [XGTACX_site847] | 11.2 ± 0.72
AAAAAAAAATTTGTATCACACACGTATTATAAAAAA [CACACA_site6] | 10.3 ± 0.16
ATTATATAATATAATGCATGTGTTAATGAAAAATCT [TGCATGCA_site426] | 9.985 ± 0.049
AAAAAAAAAAAAAAGTGTACCTTATTATACTTTAAT [XGTACX_site8439] | 11.3 ± 0.69

Sequence | gcPBM binding intensity (ln)
TAAAGGTGTAAAACTGCATGCTGGAGAAAAGTAAAA [TGCATGCA_site591] | 10.2 ± 0.2
AATAATACGTTAAATGTTCTTACAAGTTGGTTTCAT [CACACA_negctrl_site1029] | 10.05 ± 0.042
CATACACAGAAACACACACACATATATATATATATA [CACACA_site4519] | 10.3 ± 0.59
AGAAAGGAGGAAATAAAAGGACTTCTTTTTTTATAT [CACACA_negctrl_site810] | 10.23 ± 0.028
TTTAAAAAAAATATGTGTACTTAATATTTTCATATA [XGTACX_site7421] | 11.4 ± 0.84
TACATATAAATAATAACACACACCTAGGTACATGGA [CACACA_site838] | 10.9 ± 0.52
ATAGTATTTTTTATTACACACAAATAAAAAGAAAAA [CACACA_site2087] | 10.2 ± 0.26
ATGAAACAGTAACATTGTACTTTTACAAAAAAATAA [XGTACX_site806] | 11.3 ± 0.91
AAAATCTATATTAACACACACACAAAAAAAAAAAAA [CACACA_site6738] | 9.89 ± 0.45
ATTCATATCTACTTCACACACATTTGATCATTCAAA [CACACA_site7207] | 10.1 ± 0.11
GTTCCCATAAATAAATGTACATATTATATATATATA [XGTACX_site3242] | 11.2 ± 0.74
GTGTAATCATATAAGGGTACAAAAAATGTCTAACAA [XGTACX_site8122] | 11.2 ± 0.67
ATCTTTCGTACATGTACACACAGAAAAAAAAAAAAA [CACACA_site2502] | 11.5 ± 1
TTATTTACCTATTATAGTACATATAATTAATATAAT [XGTACX_site5724] | 10.9 ± 0.7
TTTCATTTCACAGACACACACACACCCTATATTTCC [CACACA_site3906] | 10.3 ± 0.26
ATATATTTTATATAGTGTACTTTAATTTTTTTTTTT [XGTACX_site5550] | 11.3 ± 0.84
ATTTTTTTTTTTTTTGAACACACATTATTAATTTTT [CACACA_site7990] | 9.95 ± 0.11
ATATATATATATGTTAGTACTTATATTGAAATGGTA [XGTACX_site1406] | 11 ± 0.58
ATAAATAAAACAAAATGTACAAATATTCATATATTC [XGTACX_site1307] | 10.6 ± 0.35

Sequence | gcPBM binding intensity (ln)
AGTAGTCTGGAGAAGAGTACATAGTATCTGATAACC [XGTACX_site2044] | 11.4 ± 0.89
AAGAATTTTACAAAATGTACTTATGTTTTGTTTTAC [XGTACX_site5632] | 11 ± 0.64
GTAAAAATTTCATATTCACACACAAAAAAAAAAAAT [CACACA_site8457] | 10.1 ± 0.26
TTACTAAACTTATATGTACACACATATAACATTAAT [CACACA_site8710] | 11.2 ± 0.7
TAAAAAAAAAAAAAAAGTACCCATACTATATTACAT [XGTACX_site946] | 11.2 ± 0.81
ATAAATAAATTTATACGTACACATAATATATATATA [XGTACX_site4634] | 11.6 ± 0.89
AAAAATAAAATGATGGTGCACATAAAGTATGGTTAC | 10.7 ± 0.35
ATTGAAAATTATTTACCTTCTTTGAAAGAACAAATG [CACACA_negctrl_site1736] | 10.1 ± 0.16
AAAATTCTTCGGGGGAGTACAAGGATATTCTACGTT [XGTACX_site3974] | 11.6 ± 0.98
TTATAATATATATGTGGTACTTATTTATTTATTTAT [XGTACX_site7572] | 11.1 ± 0.76
ATTTTTGATTTTAAAAGTACATAAGTATACTATTTA [XGTACX_site7162] | 11.2 ± 0.83
TTTTGTAATTTTGTATGTACACATTAAAGTAATATG [XGTACX_site2401] | 11.5 ± 0.91
TAATTAATATATTTTTGTACTTATATATTTGCGTAT [XGTACX_site340] | 11 ± 0.55
AATCCACAAAGACACACACACACATATATATATATA [CACACA_site1269] | 10.4 ± 0.63
GTTAATATACATAAACGTACAGAATTATTATGAGTT [XGTACX_site5185] | 11.2 ± 0.82
CTTTTGCCCAAAAAGGTACACACCACAATGTACATA [CACACA_site809] | 11.6 ± 0.91
CCAATTCAAATATGCACACAAATTTGAAAACGATTA [CACACA_site3607] | 10.1 ± 0.19
TAAATAATCGCATAATGTACATATAATTTTTTTTTT [XGTACX_site4880] | 11 ± 0.56
AAAATTTTTTTTATTTGTACACAATTCGATACATAA [XGTACX_site4804] | 11.3 ± 0.74
